In the supplement of paper PMC12217912:
The list shows a part of the results. Sequences were assembled here from the parent chain. Inactive controls read about 0.05.

B1: TEV protease; numbered along this chain (parent)
chain: MGESLFKGPRDYNPISSSICHLTNESDGHTTSLYGIGFGPFIITNKHLFRRNNGTLVVQSLHGVFKVKDTTTLQQHLVDGRDMIIIRMPKDFPPFPQKLKFREPQREERICLVTTNFQTKSMSSMVSDTSCTFPSGDGIFWKHWIQTKDGQCGSPLVSTRDGFIVGIHSASNFTNTNNYFTSVPKNFMELLTNQEAQQWVSGWRLNADSVLWGGHKVFMVKPEEPFQPVKEATQL

Variants of: B1
Assay: raw area under fraction-flipped curve 0-4 h after induction (AUC4h, not background-subtracted), DNA-recorder readout of cleavage of the substrate (dimensionless); higher = more cleavage of the substrate by the protease variant
Conditions: temperature: 34 °C; time window: 0-4 h after rhamnose induction
Method: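 In vivo DNA recorder in E. coli TOP10(DE3) ΔrhaA at 34 °C. Each TEVp single-site mutant (parent TEVp 0) is paired with a single-site variant of the 7-mer TEVs (canonical ENLYFQ|S). The substrate sits between flexible linkers in a Bxb1-sfGFP-TEVs-SsrA fusion, so cleavage stabilises Bxb1 and speeds flipping of a recombination array, read by NGS. The value is the raw area under the fraction-flipped curve over 0-4 h after rhamnose induction (AUC4h), with ≥20 reads per time point. It is not background-subtracted; inactive controls average about 0.047.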
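Also: Bxb1 expression induced with 0.2% (w/v) L-rhamnose at OD600 near 0.5, cultures sampled hourly, flipped fraction per protease–substrate barcode pair counted by paired-end Illumina sequencing.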

Variant | area with substrate ENAYFQS | area with substrate ENCYFQS | area with substrate ENDYFQS | area with substrate ENEYFQS | area with substrate ENFYFQS | area with substrate ENGYFQS | area with substrate ENKYFQS | area with substrate ENMYFQS | area with substrate ENNYFQS | area with substrate ENQYFQS | area with substrate ENRYFQS | area with substrate ENTYFQS | area with substrate ENVYFQS | area with substrate ENWYFQS | area with substrate ENYYFQS | area with substrate ENHYFQS | area with substrate ENSYFQS | area with substrate ENIYFQS | area with substrate ENPYFQS
G166H | 0.0404 | 0.0558 | 0.0468 | 0.0596 | 0.0594 | 0.0546 | 0.0461 | 0.0555 | 0.0562 | 0.053 | 0.0481 | 0.0556 | 0.0458 | 0.0625 | 0.0697 |  |  |  | 
G166Y | 0.0742 | 0.057 | 0.0557 | 0.0578 |  |  |  | 0.0521 |  | 0.0601 |  |  | 0.0557 |  |  | 0.0486 | 0.0359 |  | 
I167L | 0.0666 | 0.0612 | 0.0613 | 0.0526 |  | 0.0814 | 0.0622 | 0.0695 |  | 0.0686 | 0.0583 | 0.0521 | 0.0661 | 0.0433 |  | 0.0578 | 0.0688 | 0.0529 | 0.0887
I167M | 0.055 | 0.065 | 0.0559 |  |  |  |  |  |  | 0.0657 | 0.0909 | 0.0545 |  | 0.0663 |  | 0.0643 | 0.0699 |  | 
I167P | 0.0535 | 0.0496 | 0.0535 | 0.0537 | 0.0411 | 0.0388 | 0.0499 |  |  | 0.0544 |  |  |  |  |  |  | 0.053 | 0.056 | 
I167Q | 0.0902 |  |  | 0.0516 | 0.0224 | 0.06 |  | 0.0546 |  | 0.055 | 0.0668 | 0.0858 | 0.0853 |  |  | 0.0625 | 0.0661 | 0.0526 | 
S169H | 0.0539 | 0.0644 | 0.0644 | 0.0602 |  | 0.0582 |  | 0.0467 | 0.0482 | 0.0403 | 0.0634 |  | 0.058 | 0.0359 | 0.0593 |  |  | 0.0676 | 
A170P | 0.0684 |  |  |  | 0.0545 | 0.0646 | 0.0517 |  |  |  |  |  |  |  |  |  | 0.0718 |  | 0.0617
S171W | 0.0628 |  |  | 0.0599 | 0.0698 |  | 0.0831 |  |  | 0.0548 |  |  |  |  |  | 0.0228 | 0.0613 |  | 
N172D | 0.034 | 0.0616 | 0.0574 | 0.0526 | 0.0557 |  | 0.093 |  | 0.071 | 0.0636 | 0.0737 |  |  | 0.0045 | 0.0494 | 0.0532 | 0.0595 | 0.0505 | 0.0801
F173P | 0.0454 |  | 0.0606 | 0.0632 | 0.0585 |  |  |  |  | 0.0666 |  | 0.0635 | 0.0576 | 0.0578 |  |  | 0.0573 |  | 
F173V | 0.0474 |  | 0.0611 | 0.0509 | 0.09 | 0.0589 | 0.0555 | 0.0746 | 0.0607 | 0.0613 | 0.0613 | 0.0605 | 0.054 |  |  | 0.0666 | 0.0523 |  | 
T174M | 0.0539 | 0.0585 | 0.0361 | 0.0614 | 0.0621 | 0.0511 |  |  | 0.046 | 0.0518 | 0.0342 |  | 0.0721 |  |  |  |  |  | 0.0591
N177F | 0.0532 | 0.0692 | 0.0764 |  | 0.0692 | 0.061 | 0.0808 | 0.0697 | 0.0612 | 0.0585 | 0.0599 | 0.0647 | 0.0734 |  |  | 0.0662 | 0.066 | 0.0631 | 0.0651
N177R | 0.0541 |  | 0.0411 | 0.0902 |  |  |  |  | 0.0678 | 0.0444 |  |  |  |  |  | 0.0523 | 0.132 | 0.137 | 
N177W | 0.051 |  |  |  |  |  |  | 0.0624 | 0.0245 | 0.0568 |  | 0.0612 |  |  | 0.0573 | 0.0666 |  |  | 

Variant | area with substrate ENAYFQS | area with substrate ENCYFQS | area with substrate ENDYFQS | area with substrate ENEYFQS | area with substrate ENFYFQS | area with substrate ENGYFQS | area with substrate ENKYFQS | area with substrate ENMYFQS | area with substrate ENNYFQS | area with substrate ENQYFQS | area with substrate ENRYFQS | area with substrate ENTYFQS | area with substrate ENVYFQS | area with substrate ENWYFQS | area with substrate ENYYFQS | area with substrate ENHYFQS | area with substrate ENSYFQS | area with substrate ENIYFQS | area with substrate ENPYFQS
N178P | 0.0696 |  | 0.0513 | 0.0385 |  |  | 0.0536 |  | 0.0671 | 0.0367 |  | 0.0332 |  |  |  |  |  |  | 
Y179G | 0.0479 |  | 0.0613 |  | 0.0188 |  |  |  |  | 0.051 | 0.0705 |  | 0.0766 | 0.0433 |  | 0.0528 | 0.0525 |  | 
Y179H | 0.0452 | 0.0605 | 0.0581 | 0.0452 | 0.0569 |  |  | 0.0671 | 0.0763 |  | 0.0528 | 0.0678 | 0.0492 |  | 0.0486 | 0.064 | 0.051 | 0.0721 | 
Y179P | 0.0558 |  |  | 0.058 |  |  | 0.0623 |  |  | 0.0605 | 0.0449 | 0.0499 | 0.0586 |  |  |  | 0.0529 | 0.0459 | 
F180Y | 0.0729 |  | 0.0638 | 0.0703 | 0.0525 | 0.0664 |  | 0.0515 | 0.0563 |  | 0.0571 |  | 0.0795 |  |  |  | 0.0632 |  | 0.0595
K185Y | 0.05 | 0.0728 |  | 0.0543 | 0.0549 | 0.0512 | 0.0775 | 0.0382 | 0.0585 | 0.0601 | 0.0576 | 0.062 | 0.0685 | 0.0469 | 0.0494 |  |  | 0.134 | 0.0617
F187S | 0.0484 | 0.049 | 0.0463 | 0.0725 | 0.0712 | 0.0728 | 0.0599 |  | 0.0534 | 0.0489 | 0.0447 | 0.0554 |  |  | 0.0626 | 0.0801 | 0.0519 |  | 
F187V | 0.0365 |  |  |  |  |  | 0.0551 |  |  | 0.0609 |  | 0.0571 | 0.0579 |  |  |  | 0.0559 |  | 0.0695
M188F | 0.0579 | 0.0691 |  |  |  |  | 0.065 |  | 0.0255 | 0.0442 |  | 0.057 |  |  | 0.0586 | 0.0701 | 0.0638 |  | 
M188G | 0.0629 | 0.0742 | 0.0598 | 0.0713 |  | 0.0376 | 0.0755 | 0.0391 | 0.0629 | 0.0554 | 0.0593 | 0.0842 |  | 0.0391 |  | 0.0476 |  | 0.111 | 
M188H | 0.0657 |  | 0.0064 |  |  |  | 0.0436 |  |  |  |  | 0.0662 |  |  |  |  | 0.0609 |  | 
M188V | 0.0606 | 0.0603 | 0.0657 |  | 0.0484 | 0.0718 | 0.0566 |  |  | 0.064 | 0.067 | 0.0637 | 0.0694 |  | 0.0654 |  | 0.0378 |  | 0.0703
E189Q | 0.0671 |  |  | 0.0324 | 0.0661 |  |  |  | 0.0672 | 0.0639 | 0.0543 | 0.0575 | 0.0767 |  | 0.0796 |  |  |  | 0.0737
L190K | 0.0554 | 0.0667 | 0.0648 | 0.0275 |  | 0.0652 | 0.058 | 0.051 | 0.0563 | 0.0639 |  | 0.0627 |  | 0.0603 |  | 0.0614 | 0.0707 | 0.12 | 
L190V | 0.0633 | 0.0643 | 0.0469 | 0.0595 | 0.0716 |  |  |  | 0.056 |  | 0.0595 |  | 0.059 | 0.0784 |  |  | 0.0528 | 0.092 | 0.0583
